# Out of some 390,000 compounds screened, about 4,700 (1.2%) were called active. This list was built around the results that the source calls inconclusive (neither active nor inactive); the mix of calls is not that of the screen. The call rests on the fitted dose curve; in most records, active means well fitted inhibition curve with a large enough effect; inconclusive means small, poorly fitted or top-dose-only effect, or another doubt; inactive means no such curve, though single readings can be large or run the other way. Where the call is inconclusive, the potency comes from a doubtful curve fit.
# Biological target: DNA polymerase eta (Homo sapiens) (UniProt Q9Y253)
# UniProt Q9Y253, sequence (Q9Y253 whole entry, looked up): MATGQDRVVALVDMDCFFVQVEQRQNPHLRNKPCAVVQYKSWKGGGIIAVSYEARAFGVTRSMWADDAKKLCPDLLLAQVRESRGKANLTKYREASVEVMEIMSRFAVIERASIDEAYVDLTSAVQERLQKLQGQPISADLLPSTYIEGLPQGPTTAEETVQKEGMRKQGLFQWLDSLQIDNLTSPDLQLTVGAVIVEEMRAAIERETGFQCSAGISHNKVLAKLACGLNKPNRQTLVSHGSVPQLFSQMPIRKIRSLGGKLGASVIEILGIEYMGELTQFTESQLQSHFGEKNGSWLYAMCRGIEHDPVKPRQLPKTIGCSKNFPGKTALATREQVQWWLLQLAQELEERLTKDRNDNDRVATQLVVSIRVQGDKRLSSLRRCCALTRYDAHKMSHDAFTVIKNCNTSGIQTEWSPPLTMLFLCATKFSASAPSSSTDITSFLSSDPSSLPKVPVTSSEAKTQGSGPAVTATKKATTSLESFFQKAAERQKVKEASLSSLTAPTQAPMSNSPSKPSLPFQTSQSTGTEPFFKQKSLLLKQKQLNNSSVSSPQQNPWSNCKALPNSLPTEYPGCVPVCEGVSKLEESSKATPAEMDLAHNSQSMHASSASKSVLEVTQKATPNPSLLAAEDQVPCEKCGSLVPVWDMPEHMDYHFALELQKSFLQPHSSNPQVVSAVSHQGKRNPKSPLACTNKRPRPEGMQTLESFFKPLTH
# Assay: qHTS for Inhibitors of Polymerase Eta
# Settings: recombinant Pol eta, fluorescent DNA replication assay; series mostly up to 114 µM
# Outline: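 Pol eta (10 nM) was preincubated with compounds for 15 min at room temperature, after which fluorescent replication substrate (50 nM final) was added to start the reaction. Fluorescence was read kinetically at 0 and 10 min.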
# Potency means the concentration at half of the fitted maximal effect; tags describe the fitted curve by direction and shape.
row,Compound,Potency
1,CCc1ccccc1NC(=O)c1ccc2c(SCC(=O)O)c3c(nc2c1)CCC3,inactive
2,Cc1ccc(S(=O)(=O)N2CCN(C(=O)COC(=O)COc3ccc(Cl)c(C)c3)CC2)c(C)c1,"inconclusive: 89.1 µM [inhibitor, partial curve, poor fit]"
3,O=C(C[n+]1ccc(C(=O)N/N=C/c2ccc(O)cc2)cc1)c1ccccc1,"inconclusive: 44.7 µM [inhibitor, partial curve, poor fit]"
4,CSCCC1NC2(C(=O)Nc3c(C)cc(Cl)cc32)[C@@H]2C(=O)N(C3CCCC3)C(=O)[C@H]12 (stereo partly drawn),"inconclusive: 17.8 µM [inhibitor, single point]"
5,COc1ccc(OC)c(Nc2ncnc3c2nc2n3CCCC2)c1,inactive
6,CCCNC(=O)c1ccc(Cl)cc1Cl,inactive
7,COc1ccc2c(c1)Cc1sc(NC(=O)c3ccco3)nc1-2,"inconclusive: 25.1 µM [inhibitor, single point]"
8,COC(=O)c1ccc2nc(Nc3nc4c(F)cc(F)cc4s3)sc2c1,"inconclusive: 22.4 µM [inhibitor, partial curve, poor fit]"
9,CCc1ccc(NC(=O)C(C)Sc2nnc(CN3CCCC3)o2)cc1 (stereo not drawn),inactive
10,C=CCN(C(=O)c1cccc(S(=O)(=O)N2CCN(C)CC2)c1)c1nc(-c2ccccc2)cs1,"inconclusive: 17.8 µM [inhibitor, partial curve, poor fit]"
11,CCOc1ccc(C(=O)Nc2ccc(NC(=O)c3ccccc3)c(C)c2)cc1[N+](=O)[O-],inactive
12,CC(C)(C)c1ccc(Oc2ccc(NC(=O)CCC(=O)OCC(=O)c3ccccc3)cc2)cc1,"inconclusive: 100 µM [inhibitor, partial curve, poor fit]"
13,O=C(CCCn1c(=S)[nH]c2ccccc2c1=O)N1CCN(c2cccc(Cl)c2)CC1,"inconclusive: 39.8 µM [inhibitor, partial curve, poor fit]"
14,O=C(NCC1CCCO1)c1sc(=S)n2c1[nH]c(=O)c1ccc(C(=O)N3CCCCC3)cc12 (stereo not drawn),inactive
15,O=C(CS(=O)c1ccc(C(F)(F)F)cc1[N+](=O)[O-])Oc1ccc(Cl)cc1 (stereo not drawn),"inconclusive: 35.5 µM [inhibitor, partial curve, poor fit]"
16,O=C1c2cccc(NCCNCCO)c2C(=O)c2cccc(NCCNCCO)c21,active: 7.08 µM
17,CC(C)(C)OC(=O)N1CCC[C@H]1c1nnc(SCc2c(F)cccc2Cl)o1,"inconclusive: 100 µM [inhibitor, single point]"
18,COc1cc(/C=C2\SC(=S)N(NC(=O)c3cccnc3)C2=O)ccc1O,"inconclusive: 79.4 µM [inhibitor, partial curve]"
19,COc1ccc(CCNc2cc(C)nc(N)n2)cc1OC,"inconclusive: 31.6 µM [inhibitor, single point]"
20,CN=c1oc2ccc(Cl)cc2cc1C(N)=O,"inconclusive: 31.6 µM [inhibitor, partial curve, poor fit]"
21,Nc1nc(-c2ccccn2)nc(N)c1Cc1c(F)cccc1Cl,inactive
22,O=C(O)c1ccc(C(=O)c2ccc3c(c2)C(=O)N(Cc2ccco2)C3=O)cc1,active: 20 µM

row,Compound,Potency
1,O=c1[nH]c(CCl)nc2cc(-c3ccc(Cl)cc3)sc12,"inconclusive: 20 µM [inhibitor, partial curve, poor fit]"
2,O=c1oc2ccc3ccccc3c2cc1-c1nnc(-c2ccccc2)o1,"inconclusive: 14.1 µM [inhibitor, partial curve]"
3,Cc1ccc(NS(=O)(=O)c2cccc(C(=O)O)c2)cc1S(=O)(=O)N1CCOCC1,"inconclusive: 25.1 µM [inhibitor, single point]"
4,CS(=O)(=O)c1ccc(C(=O)OCC(=O)NC23CC4CC(CC(C4)C2)C3)cc1[N+](=O)[O-],active: 15.8 µM
5,O=C1/C(=C\c2ccco2)SC(=S)N1c1ccccc1,"inconclusive: 35.5 µM [inhibitor, single point]"
6,C=CCOc1ccc(C2C(C#N)=C(N)N(Nc3ccccc3)C3=C2C(=O)CC(C)(C)C3)cc1OC (stereo not drawn),"inconclusive: 56.2 µM [inhibitor, partial curve, poor fit]"
7,CCN(C(=O)c1ccc(C(C)(C)C)cc1)c1nnc(Cn2nnc3ccccc32)s1,"inconclusive: 79.4 µM [inhibitor, partial curve, poor fit]"
8,CC(C)c1ccc(NS(=O)(=O)c2ccc3[nH]cc(C(=O)NCC4CCCO4)c(=O)c3c2)cc1 (stereo not drawn),active: 89.1 µM
9,O=C(c1ccc(-c2cccc([N+](=O)[O-])c2)o1)N1CCN(c2ccc([N+](=O)[O-])cc2)CC1,inactive
10,Cc1ccc(C)c(N2CCN(C(=O)CSc3ccsc3[N+](=O)[O-])CC2)c1,"inconclusive: 79.4 µM [inhibitor, partial curve]"
11,COc1cc(NC(=O)CCCc2nnc3n(CC(C)C)c(=O)c4sccc4n23)cc(OC)c1,inactive
12,COc1cc(CCC(=O)OCC(=O)Nc2sccc2C(N)=O)cc(OC)c1OC,"inconclusive: 35.5 µM [inhibitor, partial curve, poor fit]"
13,Cc1ccc(NC(=S)NNc2ccc([N+](=O)[O-])cc2S(=O)(=O)Nc2ccccc2C(=O)O)cc1C,active: 28.2 µM
14,O=C(NCc1ccco1)c1ccc(N2CCCC2=O)cc1,"inconclusive: 39.8 µM [inhibitor, single point]"
15,CCCS(=O)(=O)N1CCCC(C(=O)Oc2ccc(C)c(C)c2)C1 (stereo not drawn),"inconclusive: 35.5 µM [inhibitor, single point]"
16,COc1cc2c(cc1OC)C(O)=CC(=O)C2=O,inactive
17,CCOc1ccc(OCC(=O)NCCc2nc3ccccc3[nH]2)cc1,inactive
18,Cc1cc(NC(=O)CSc2cn(CCNC(=O)c3ccccc3)c3ccccc23)no1,"inconclusive: 28.2 µM [inhibitor, full curve, poor fit]"
19,CC(=O)c1c(N2CCN(Cc3ccccc3)CC2)nc(=S)n(-c2ccccc2)c1C,inactive
20,C1=C(N2CCOCC2)/C(=C/c2nc3ccccc3[nH]2)CC1,active: 20 µM
21,COc1cc(N2C(=O)c3ccccc3C2=O)c(Cl)cc1C(=O)OCC(=O)NCc1ccco1,"inconclusive: 20 µM [inhibitor, single point]"
